Assay results: PMC12820563, “FoxP3 forms a head-to-head dimer in vivo and stabilizes its multimerization on adjacent microsatellites”
The list shows a part of the results.

target: T1, MBP-FoxP1dN (Mus musculus, UniProt P58462 326-579); assay: PD-seq (MBP pull-down with sequencing); 20 mM Tris-HCl pH 7.5, 100 mM NaCl, 1.5 mM MgCl2, 0.4 uM protein, 0.1 uM dsDNA library, 30 min, room temperature, amylose pull-down; high values mean tight binding; conditions: protein: recombinant; tags: His6-MBP; chain copies: 2; dsDNA, one strand shown
T1 sequence: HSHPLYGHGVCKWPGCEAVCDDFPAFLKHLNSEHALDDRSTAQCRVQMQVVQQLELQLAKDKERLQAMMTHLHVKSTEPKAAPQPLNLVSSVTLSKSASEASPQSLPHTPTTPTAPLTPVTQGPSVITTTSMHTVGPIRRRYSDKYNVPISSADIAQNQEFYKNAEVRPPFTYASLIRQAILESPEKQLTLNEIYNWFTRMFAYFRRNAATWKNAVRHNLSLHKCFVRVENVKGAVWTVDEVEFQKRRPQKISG
Method in brief: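 A fragment of mouse FoxP3 or FoxP1 without its N-terminus, carrying a His6-MBP tag and produced in E. coli, was combined at 0.4 µM with a 0.1 µM degenerate double-stranded DNA library filled in with Klenow. The mixture sat for 30 min at room temperature in Tris pH 7.5 buffer containing NaCl and MgCl2. Protein–DNA complexes were captured on amylose resin, washed three times, and the DNA was freed with proteinase K, barcoded by PCR and sequenced on Illumina. Binding is expressed as reads-per-million enrichment of pull-down over input, with replicates pooled.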

Sequence | binding signal
GATGATTGTTCTCCCAGCTGATGAATTTGAAATCTCGAGTAAACAAATTTTCCTAATCTTTCTGTTCAAGCGCCATCTAC | 0.737 RPM ratio (pull-down/input)
GATGATTGTTCTCCCAGCTGATGAATTATCCGATTCGAGTAAACAAATTTTCCTAATCTTTCTGTTCAAGCGCCATCTAC | 0.95 RPM ratio (pull-down/input)
GATGATTGTTCTCCCAGCTGATGAATTTTACAGCTCGAGTAAACAAATTTTCCTAATCTTTCTGTTCAAGCGCCATCTAC | 0.813 RPM ratio (pull-down/input)
GATGATTGTTCTCCCAGCTGATGAATTCTCCCATTCGAGTAAACAAATTTTCCTAATCTTTCTGTTCAAGCGCCATCTAC | 0.975 RPM ratio (pull-down/input)
GATGATTGTTCTCCCAGCTGATGAATTTCCCACTTCGAGTAAACAAATTTTCCTAATCTTTCTGTTCAAGCGCCATCTAC | 0.889 RPM ratio (pull-down/input)
GATGATTGTTCTCCCAGCTGATGAATTTAGAGGATCGAGTAAACAAATTTTCCTAATCTTTCTGTTCAAGCGCCATCTAC | 0.884 RPM ratio (pull-down/input)
GATGATTGTTCTCCCAGCTGATGAATTTGTAACTTCGAGTAAACAAATTTTCCTAATCTTTCTGTTCAAGCGCCATCTAC | 1.15 RPM ratio (pull-down/input)
GATGATTGTTCTCCCAGCTGATGAATTCACACAATCGAGTAAACAAATTTTCCTAATCTTTCTGTTCAAGCGCCATCTAC | 1.35 RPM ratio (pull-down/input)
GATGATTGTTCTCCCAGCTGATGAATTCTAAGATTCGAGTAAACAAATTTTCCTAATCTTTCTGTTCAAGCGCCATCTAC | 0.843 RPM ratio (pull-down/input)
GATGATTGTTCTCCCAGCTGATGAATTGTGACCGTCGAGTAAACAAATTTTCCTAATCTTTCTGTTCAAGCGCCATCTAC | 0.982 RPM ratio (pull-down/input)
GATGATTGTTCTCCCAGCTGATGAATTGTGGTAATCGAGTAAACAAATTTTCCTAATCTTTCTGTTCAAGCGCCATCTAC | 1.58 RPM ratio (pull-down/input)
GATGATTGTTCTCCCAGCTGATGAATTTTGCGTGTCGAGTAAACAAATTTTCCTAATCTTTCTGTTCAAGCGCCATCTAC | 0.967 RPM ratio (pull-down/input)
GATGATTGTTCTCCCAGCTGATGAATTACGATTTTCGAGTAAACAAATTTTCCTAATCTTTCTGTTCAAGCGCCATCTAC | 1.11 RPM ratio (pull-down/input)
GATGATTGTTCTCCCAGCTGATGAATTGGATGTGTCGAGTAAACAAATTTTCCTAATCTTTCTGTTCAAGCGCCATCTAC | 0.931 RPM ratio (pull-down/input)
GATGATTGTTCTCCCAGCTGATGAATTATGCGGCTCGAGTAAACAAATTTTCCTAATCTTTCTGTTCAAGCGCCATCTAC | 0.914 RPM ratio (pull-down/input)
GATGATTGTTCTCCCAGCTGATGAATTGCAACGATCGAGTAAACAAATTTTCCTAATCTTTCTGTTCAAGCGCCATCTAC | 1.2 RPM ratio (pull-down/input)
GATGATTGTTCTCCCAGCTGATGAATTCTGTAGGTCGAGTAAACAAATTTTCCTAATCTTTCTGTTCAAGCGCCATCTAC | 0.84 RPM ratio (pull-down/input)
GATGATTGTTCTCCCAGCTGATGAATTACTACGTTCGAGTAAACAAATTTTCCTAATCTTTCTGTTCAAGCGCCATCTAC | 1.15 RPM ratio (pull-down/input)
